# Changes are numbered by the printed parent chain. Results are given in words; binding and its absence hold for the method and conditions named. Binding seen in cells or lysates may run through a third protein. Some results given as binding are weak or reduced against the parent protein; the word gives no strength. For some assays here: Sequences can lack the tags named with a protein.
# Protein sequences, listed by entry. Tags and fused reporters are not part of them.
# UniProt Q04206: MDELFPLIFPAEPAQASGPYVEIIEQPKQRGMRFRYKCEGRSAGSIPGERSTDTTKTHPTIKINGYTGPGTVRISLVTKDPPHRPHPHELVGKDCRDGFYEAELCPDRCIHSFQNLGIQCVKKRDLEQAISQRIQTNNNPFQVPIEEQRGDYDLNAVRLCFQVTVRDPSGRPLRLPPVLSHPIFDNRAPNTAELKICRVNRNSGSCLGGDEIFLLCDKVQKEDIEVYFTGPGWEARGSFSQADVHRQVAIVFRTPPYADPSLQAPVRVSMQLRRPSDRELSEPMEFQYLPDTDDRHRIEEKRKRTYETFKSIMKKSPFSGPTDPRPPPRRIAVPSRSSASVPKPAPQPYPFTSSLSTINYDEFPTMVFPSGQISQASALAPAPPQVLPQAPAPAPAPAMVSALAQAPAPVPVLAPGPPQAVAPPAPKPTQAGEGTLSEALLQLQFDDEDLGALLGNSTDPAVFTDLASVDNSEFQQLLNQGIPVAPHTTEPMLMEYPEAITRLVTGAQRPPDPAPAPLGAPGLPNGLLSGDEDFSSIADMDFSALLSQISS
# UniProt P25963: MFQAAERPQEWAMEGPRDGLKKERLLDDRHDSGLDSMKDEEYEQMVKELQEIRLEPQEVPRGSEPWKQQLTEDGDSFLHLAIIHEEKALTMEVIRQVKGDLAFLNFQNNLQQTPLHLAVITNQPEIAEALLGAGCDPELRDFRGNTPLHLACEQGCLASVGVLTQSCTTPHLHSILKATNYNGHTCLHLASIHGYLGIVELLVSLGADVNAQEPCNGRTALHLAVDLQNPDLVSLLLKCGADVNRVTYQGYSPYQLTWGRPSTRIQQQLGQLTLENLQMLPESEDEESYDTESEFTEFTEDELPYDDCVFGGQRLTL
# T1: FLAG-tagged AEG-1 S298A (human) (UniProt Q86UE4)
# T1 sequence: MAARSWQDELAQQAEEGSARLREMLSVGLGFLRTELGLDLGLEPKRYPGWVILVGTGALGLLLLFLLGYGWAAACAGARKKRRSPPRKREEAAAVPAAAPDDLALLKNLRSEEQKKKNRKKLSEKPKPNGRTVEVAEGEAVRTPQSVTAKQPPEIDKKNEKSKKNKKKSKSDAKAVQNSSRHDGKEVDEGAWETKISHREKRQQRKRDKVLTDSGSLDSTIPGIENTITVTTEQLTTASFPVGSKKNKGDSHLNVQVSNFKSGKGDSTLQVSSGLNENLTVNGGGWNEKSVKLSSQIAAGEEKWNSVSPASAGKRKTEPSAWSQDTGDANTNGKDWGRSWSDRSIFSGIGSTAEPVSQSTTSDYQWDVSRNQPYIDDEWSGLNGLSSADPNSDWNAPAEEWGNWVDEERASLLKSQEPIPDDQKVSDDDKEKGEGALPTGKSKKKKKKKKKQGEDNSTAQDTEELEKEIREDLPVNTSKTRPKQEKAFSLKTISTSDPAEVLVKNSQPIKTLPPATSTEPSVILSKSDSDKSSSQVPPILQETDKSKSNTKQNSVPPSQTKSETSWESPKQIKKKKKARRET
# T2: FLAG-tagged wild-type AEG-1 (human) (UniProt Q86UE4)
# T2 sequence: T1 sequence with A298S
# T3: Astrocyte-Elevated Gene-1 (AEG-1), endogenous in MCF-7 cells (human (endogenous in MCF-7)) (UniProt Q86UE4)
# T3 sequence: T1 sequence with A298S
# B1: IKKβ, endogenous in MCF-7 cells (enzyme, UniProt O14920 1-756)
# chain: MSWSPSLTTQTCGAWEMKERLGTGGFGNVIRWHNQETGEQIAIKQCRQELSPRNRERWCLEIQIMRRLTHPNVVAARDVPEGMQNLAPNDLPLLAMEYCQGGDLRKYLNQFENCCGLREGAILTLLSDIASALRYLHENRIIHRDLKPENIVLQQGEQRLIHKIIDLGYAKELDQGSLCTSFVGTLQYLAPELLEQQKYTVTVDYWSFGTLAFECITGFRPFLPNWQPVQWHSKVRQKSEVDIVVSEDLNGTVKFSSSLPYPNNLNSVLAERLEKWLQLMLMWHPRQRGTDPTYGPNGCFKALDDILNLKLVHILNMVTGTIHTYPVTEDESLQSLKARIQQDTGIPEEDQELLQEAGLALIPDKPATQCISDGKLNEGHTLDMDLVFLFDNSKITYETQISPRPQPESVSCILQEPKRNLAFFQLRKVWGQVWHSIQTLKEDCNRLQQGQRAAMMNLLRNNSCLSKMKNSMASMSQQLKAKLDFFKTSIQIDLEKYSEQTEFGITSDKLLLAWREMEQAVELCGRENEVKLLVERMMALQTDIVDLQRSPMGRKQGGTLDDLEEQARELYRRLREKPRDQRTEGDSQEMVRLLLQAIQSFEKKVRVIYTQLSKTVVCKQKALELLPKVEEVVSLMNEDEKTVVRLQEKRQKELWNLLKIACSKVRGPVSGSPDSMNASRLSQPGQLMSQPSTASNSLPEPAKKSEELVAEAHNLCTLLENAIQDTVREQDQSFTALDWSWLQTEEEEHSCLEQAS
# B2: Astrocyte-Elevated Gene-1 (AEG-1), endogenous in MCF-7 cells (protein, UniProt Q86UE4 1-582)
# chain: T1 sequence with A298S
# B3: IKKβ in HEK293 cells (enzyme, UniProt O14920 1-756)
# chain: B1 chain
# How the values were obtained:
# [1] = target: T1, FLAG-tagged AEG-1 S298A (human); assay: co-IP; HEK293 cells with overexpressed wild-type or S298A AEG-1 (Supplementary Fig. 4a,c); bait and treatments not told in the text shown
# [2] = target: T2, FLAG-tagged wild-type AEG-1 (human); assay: as above
# [3] = target: T1, FLAG-tagged AEG-1 S298A (human); assay: co-IP; HEK293 cells transfected with FLAG-tagged WT or S298A AEG-1, serum-starved and stimulated with TNF-α (10 ng/ml); anti-FLAG agarose precipitation, RIPA buffer, immunoblot
# [4] = target: T2, FLAG-tagged wild-type AEG-1 (human); assay: as above
# [5] = target: T3, Astrocyte-Elevated Gene-1 (AEG-1), endogenous in MCF-7 cells (human (endogenous in MCF-7)); assay: co-IP; endogenous proteins immunoprecipitated from MCF-7 lysates (RIPA buffer, Protein A/G PLUS Agarose), immunoblot; AEG-1 siRNA knockdown as control of specificity
# [6] = target: p65 subunit of NF-κB, endogenous in MCF-7 cells (human (endogenous in MCF-7)) (UniProt Q04206); assay: as above
Molecule,binding [1],binding [2],other results
IκBα in HEK293 cells (from UniProt P25963 1-317),no binding,binds,
p65 subunit of NF-κB in HEK293 cells (from UniProt Q04206 1-551),,,binding [3]: no binding; binding [4]: binds
B1,,,binding [5]: binds
B2,,,binding [6]: binds
B3,binds,binds,

# — publication PMC4396366
